Test results taken from the supplement of paper PMC7266297.
Counter-ions that a name gives are not always drawn. The list shows a part of the results. Most values come without repeats; read them as rough.

How the values were obtained:
KB-3-1 = assay: growth inhibition relative to DMSO control (SRB); cervical cancer cells: KB-3-1 is the parent and KB-V1 overexpresses MDR1; SRB is the sulforhodamine B stain; higher = more growth inhibition; details: 1 µM; 72 h
KB-V1 = assay: as above; details: 1 µM; 72 h
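Note: Read-out is SRB optical density at 490 nm, with the control being wells given 0.5% DMSO vehicle, and compound added one day after cells were plated.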

Row | Structure (SMILES) | growth inhibition (KB-3-1) | growth inhibition (KB-V1)
1 | O=P(O)(O)C(O)(Cn1ccnc1)P(=O)(O)O [Zoledronic Acid] | 13.5% | 38.3%
2 | CN[C@@H](C)C(=O)N[C@H](C(=O)N1CCC[C@H]1C(=O)Nc1snnc1-c1ccccc1)C1CCCCC1 | 25.1% | 9.32%
3 | CC1(C)CCC(c2ccc(Cl)cc2)=C(CN2CCN(c3ccc(C(=O)NS(=O)(=O)c4ccc(N[C@H](CCN5CCOCC5)CSc5ccccc5)c(S(=O)(=O)C(F)(F)F)c4)cc3)CC2)C1 [ABT-263 (Navitoclax)] | 37.5% | 60.6%
4 | O=C(c1ccc(F)cc1)N1CCC[C@H](c2nc(-c3ccc(F)cc3)no2)C1 | < 0% | < 0%
5 | NC(=O)c1ncn([C@@H]2O[C@H](CO)[C@@H](O)[C@H]2O)c1N [Acadesine] | 52.9% | 22.5%
6 | CC(C)NC[C@@H](C(=O)N1CCN(c2ncnc3c2[C@H](C)C[C@H]3O)CC1)c1ccc(Cl)cc1 | 45.5% | 54.1%
7 | CCN1CCCC1CNC(=O)c1cc(S(=O)(=O)CC)c(N)cc1OC (stereo not given) [Amisulpride] | 11.6% | 33.3%
8 | CN(C)C(=O)C(CCN1CCC(O)(c2ccc(Cl)cc2)CC1)(c1ccccc1)c1ccccc1 [Loperamide HCl] | 27.8% | 9.26%
9 | CCS(=O)(=O)Nc1ccc2c(c1)/C(=C(/Nc1ccc(CN3CCCCC3)cc1)c1ccccc1)C(=O)N2 [Hesperadin] | 73% | 69.3%
10 | C[C@]12CC[C@@H]3c4ccc(O)cc4C[C@@H](CCCCCCCCC[S+]([O-])CCCC(F)(F)C(F)(F)F)[C@H]3[C@@H]1CC[C@@H]2O (stereo not given in full) [Fulvestrant] | 38.8% | 43.6%
11 | Nc1nnc(-c2cccc(Cl)c2Cl)c(N)n1 [Lamotrigine] | < 0% | 8.71%
12 | Cc1cc(-c2ncc(CC(=O)Nc3ccc(-c4cnccn4)cn3)cc2C)ccn1 | < 0% | < 0%
13 | c1cncc(CN2CCC(n3ncc4c(N5CCOCC5)nc(-c5ccc6[nH]ccc6c5)nc43)CC2)c1 | < 0% | 34.3%
14 | C/C=C1\[C@H]2C=C(C)C[C@]1(N)c1ccc(=O)[nH]c1C2 [(-)-Huperzine A (HupA)] | < 0% | 14%
15 | CC(=O)N1CCN(CCOc2ccc(C3CCN(C4=Nn5c(nnc5C(F)(F)F)CC4)CC3)cc2)CC1 | 21.3% | 31.2%
16 | COc1ccc(CC(C)NCC(O)c2ccc(O)c(NC=O)c2)cc1 (stereo not given) [Formoterol Hemifumarate] | 55.9% | 10.3%
17 | COc1ccc(-c2cnc3c(-c4cccc5ncccc45)cnn3c2)cc1 | 5.75% | < 0%
18 | Cc1cnc(Nc2ccc(N3CCN(C)CC3)cc2)nc1Nc1cccc(S(=O)(=O)NC(C)(C)C)c1 | < 0% | 26.9%
19 | Cc1nc(Nc2ncc(C(=O)Nc3c(C)cccc3Cl)s2)cc(N2CCN(CCO)CC2)n1 [Dasatinib] | 31.2% | 60.6%
20 | COC1=C2C[C@@H](C)C[C@H](OC)[C@H](O)[C@@H](C)/C=C(\C)[C@H](OC(N)=O)[C@@H](OC)/C=C\C=C(/C)C(=O)NC(=CC1=O)C2=O [Geldanamycin] | 55.6% | 62.2%
21 | COC(=O)N[C@@H](C)CNc1nccc(-c2cn(C(C)C)nc2-c2cc(Cl)cc(NS(C)(=O)=O)c2F)n1 | 28.9% | < 0%
22 | NC(CO)C(=O)NNCc1ccc(O)c(O)c1O (stereo not given) [Benserazide HCl] | < 0% | 33.3%
23 | CS(=O)(=O)N1CCN(Cc2cc3nc(-c4cccc5[nH]ncc45)nc(N4CCOCC4)c3s2)CC1 | 74.5% | 64.2%
24 | Cc1cc(N2CCOCC2)ccc1Nc1nc(NC2CCCCC2)c2[nH]cnc2n1 | 81.3% | 37.1%
25 | O=C(c1cn(Cc2cncn2Cc2ccc(Br)cc2)cc1-c1cccc2ccccc12)N1CCOCC1 | 74.8% | 36.9%
26 | Cc1cc([C@@H](C)Nc2ccccc2C(=O)O)c2nc(N3CCOCC3)cc(=O)n2c1 | 40.5% | 17.2%
27 | Clc1ccc(NN=C(c2ccccc2)c2ccccn2)nc1 | 60.5% | 53.5%
28 | CCN(CC)CCOc1ccc(C(=C(Cl)c2ccccc2)c2ccccc2)cc1 [Clomifene citrate] | 37.6% | 16%
29 | Cc1ccccc1C(=O)Nc1ccc(C(=O)N2CCCC(N(C)C)c3ccccc32)cc1 (stereo not given) [Mozavaptan] | < 0% | 31.5%
30 | NC(=O)[C@@H](CCC(F)(F)F)N(Cc1ccc(-c2ncon2)cc1F)S(=O)(=O)c1ccc(Cl)cc1 | < 0% | 36.3%
